Experimental data as given in the supplement of paper PMC10338343.
± gives the standard deviation. The full ranking holds about 5,500 sequences; the median of “pre-steady-state target cleavage rate” is about 0.1, and the highest 2% start at about 0.64. This is a selection; strong and weak results do not stand in their true shares.

Each sequence was assayed on MIWI (PIWIL1) piRISC loaded with piRNA #2 (30 nt) (assay: pre-steady-state target cleavage rate (min^-1); MIWI and MILI are mouse PIWI proteins and EfPiwi is from a freshwater sponge; tags in brackets are library labels; higher = faster piRNA-guided slicing of the target). Conditions: guide: piRNA #2 5'p-UUAGGUAACCCAGUAGAUCCAGAGGAAUUC; auxiliary factor: 500 nM mouse GTSF1.
Method in brief: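 In this Cleave-'n-Seq assay, uncleaved targets were sequenced and normalised to depth and to weakly complementary targets. They came from a transcribed, DNA-blocked target RNA library […] mixed with 1 nM active affinity-purified piRISC carrying one synthetic guide, with or without 500 nM GTSF1 partner protein, in HEPES–potassium acetate buffer at 33 °C for 0–8 or 0–960 min. After three trials were pooled and k3 was capped at 0.0001 min^-1, the pre-steady-state cleavage rate was obtained from a burst-and-steady-state fit.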

| Sequence | pre-steady-state target cleavage rate |
| --- | --- |
| CUUAAGGACUGGAAGUACUGGGUUACCUAA | 0.0426 ± 0.034 |
| CUUAACCUCUGGAUCUUGUGGGUUACCUAA | 0.00574 ± 0.0029 |
| CUAUUCCUCUGCAUCUACUGGGUUACCAAA | 0.31 ± 0.052 |
| CUAUUCGUCUGGAUCUUCUGGGUUACCUAA | 0.185 ± 0.033 |
| CUAUUGCUCUGCAUCUACUGGGUUACCUAA | 0.253 ± 0.047 |
| CAAUUGGACUGGAUCUACUGGGUUACCUAA | 0.245 ± 0.079 |
| CUUAACCUCUCGAUCUACUGGGUAACCUAA | 0.264 ± 0.029 |
| GAAAUCCUCUGGAUCUACUGGGAUACCUAA | 0.145 ± 0.026 |
| CUUUUCACUCUGGAUCUACUGGGUUACCUAA | 0.194 ± 0.03 |
| CUUAAGGAGAGGAUCUACUGGGUUACGCUAA | 0.0105 ± 0.0035 |
| CUUUUGCUCUGGAUCUACUGGGUUACCUAA | 0.141 ± 0.022 |
| GAAUUCCUCUGGGAUCUACUGGGUUACCUAA | 0.353 ± 0.049 |
| GAAUUCCUCUCGAUCUUCUGGGUUACCUAA | 0.62 ± 0.064 |
| CUUAAGGUCUCGAUCUACUGGGUUACGUAA | 0.375 ± 0.048 |
| CUUAAGGAGACCACUACUGGGUUACCUAA | 0.00513 ± 0.0022 |
| CUUAAGGUCUGGAUCUACUGGGUUACCUUAA | 0.115 ± 0.015 |
| CUUUUCCUCUGGAUCUACAGGGUUACCUUA | 0.225 ± 0.025 |
| GAAUUCCUCUGGAUCUAGUGGCUUACCUAA | 0.00853 ± 0.0027 |
| CUUAAGGAGACCUUCUACUGGGUUAGGUAA | < 0.0001 |
| CUCUUCCUCUGGAUCUACUGGGUUACCUAA | 0.366 ± 0.041 |
| CAAUUGCUCUGGAUCUACUGGCUUACCUAA | 0.071 ± 0.014 |
| CUUAACCUCUGCAUCUACUGGGUUACCUAA | 0.302 ± 0.026 |
| CUUAAGGUCAGGAUCUACUGGGUUACCAAA | 0.0207 ± 0.009 |
| GAAUUCCUCUGGAUCUACUGGGUUACGUUA | 0.425 ± 0.047 |

| Sequence | pre-steady-state target cleavage rate |
| --- | --- |
| CUUAAGCUCUGGAUCUAUGGGUUACCUAA | 0.00603 ± 0.0032 |
| GAAUUCCUCUGGAUCUUACUGGGUUACCUAA | 0.00516 ± 0.0036 |
| CUUAAGGAGAGGAUCUACUGGGUUACCUAAA | 0.0413 ± 0.011 |
| CUUAUGCUCUGGAUCUACUGGGUAACCUAA | 0.0806 ± 0.014 |
| CUUAUCCUCUGGAUCUACUGCGUUAGCUAA | 0.21 ± 0.081 |
| GAAUUCCUCUGGAUGUACUGGGAUACCUAA | 0.155 ± 0.03 |
| CUUAAGGAGACGAUCUACUGGGUUACCUAA [g2:g19:cont:t1A] | 0.00528 ± 0.0031 |
| CUUAAGGUCUCGAUCUACUGGGUUACCUUA | 0.0285 ± 0.0081 |
| CUUUUCCUCUGGAUCUACUGGGAUUCCUAA | 0.087 ± 0.033 |
| CUUAAGCUCUGGAUCUGCUGGGUUACCUAA | 0.0696 ± 0.01 |
| GAAUUCCAGAGGAUCUACUGGGUUACCUAA | 0.273 ± 0.042 |
| CUUAUCCUCUGGAUCUACUGGGUUACUAA | 0.179 ± 0.04 |
| CUAUUCCUCUGGAUCUACUGCCAUACCUAA | 0.00393 ± 0.0037 |
| CUUAAGCUCUGGAUCUACUGGGGUACCUAA | 0.0144 ± 0.0056 |
| CUAUUCGACUGGAUCUACUGGGUUACCUAA | 0.332 ± 0.058 |
| CUUUUCCUCUUGGAUCUACUGGGUUACCUAA | 0.346 ± 0.033 |
| GAUUUCCUCUGGAUCUACUGGGAUACCUAA | 0.115 ± 0.025 |
| CUUAACCUCUGGAUCAACUGGGUUACGUAA | 0.34 ± 0.024 |
| CUUAAGGAGACCUUCAACUCGGUUACCUAA | < 0.0001 |
| CUAUUCCUCUGGAUCUAGUGGGUUACCUAA | 0.203 ± 0.027 |
| CUUAAGCUCUGGAUCUACUGGGUUUGCUAA | 0.176 ± 0.023 |
| CUUAUCCUCUGGAUCUACUGGGUUACCGAA | 0.386 ± 0.082 |
| CUAUUCCUCAGGAUCUACUGGGUUACCUUA | 0.513 ± 0.062 |
| CUUAUCCUCUGGAUCAUACUGGGUUACCUAA | 0.00729 ± 0.0036 |

| Sequence | pre-steady-state target cleavage rate |
| --- | --- |
| GAAUUCCUCUGGAUCUACUGGGUAACCUAA | 0.179 ± 0.04 |
| CUUAAGGUCUGGUUCUACUGGGUUACCUAA | 0.2 ± 0.023 |
| CUUAACCGCUGGAUCUACUGGGUUACCUAA | 0.274 ± 0.027 |
| CUUUUCCUCUGGAACUACUCGGUUACCUAA | 0.1 ± 0.013 |
| CUAGUUCCUCUGGAUCUACUGGGUUACCUAA | 0.139 ± 0.037 |
| CUUAACCUCUGGAUCUACUGGGUAUACCUAA | 0.155 ± 0.015 |
| CUUAACGUCUGGAUCUACUGCGUUACCUAA | 0.344 ± 0.025 |
| CAAUUCCUCUGGAUCUACUGGGAUAGCUAA | 0.185 ± 0.074 |
| GAAUUCCUCUGGCUCUACUGGGUUACCUAA | 0.586 ± 0.038 |
| CUAUUCCUCUGGAUCUAGUGGCUUACCUAA | 0.00791 ± 0.004 |
| CUUUUCCACAGGAUCUACUGGGUUACCUAA | 0.324 ± 0.048 |
| CUUAACCACUGGAUCUACUGGGUUACCUAA | 0.37 ± 0.04 |
| CUAUUCCUCUGGAUCUAUUGGGUUACCUAA | 0.288 ± 0.038 |
| GAAUUCCUCUGGAUCUACGGGUUACCUAA | 0.0629 ± 0.012 |
| CUAUUGCUCUGGAUCUACUGGGUAACCUAA | 0.0644 ± 0.014 |
| GAAUUCGUCUGGAUCUUCUGGGUUACCUAA | 0.225 ± 0.043 |
| CUUAUGGACUGGAUCUACUGGGUUACCUAA | 0.235 ± 0.056 |
| GAAUUCCACUGGAUCUACUGGGUUUCCUAA | 0.453 ± 0.087 |
| CUUUUCCUCUGGAACUACUGGGUUAGCUAA | 0.318 ± 0.037 |
| GAAUUCCUCUGGAUCUACUGCCUUACCUAA | 0.0725 ± 0.015 |
| GAAUUCCUCUGGAUCAACUGGGUUACGUAA | 0.497 ± 0.043 |
| CUUAACCUCUGGAUCUACUGGGUUACGAUA | 0.143 ± 0.017 |
| GAUUCCUCUGGAUCUACUGGGUUACCUAA | 0.21 ± 0.051 |
| CUAUUCCUCUGGAUGUACUGGGUAACCUAA | 0.162 ± 0.034 |
